Measurements from the supplement of paper PMC12217912.
This is one part of the list. Sequences were assembled here from the parent chain. Inactive controls read about 0.05.

B1: TEV protease; numbered along this chain (parent)
chain: MGESLFKGPRDYNPISSSICHLTNESDGHTTSLYGIGFGPFIITNKHLFRRNNGTLVVQSLHGVFKVKDTTTLQQHLVDGRDMIIIRMPKDFPPFPQKLKFREPQREERICLVTTNFQTKSMSSMVSDTSCTFPSGDGIFWKHWIQTKDGQCGSPLVSTRDGFIVGIHSASNFTNTNNYFTSVPKNFMELLTNQEAQQWVSGWRLNADSVLWGGHKVFMVKPEEPFQPVKEATQL

Variants of: B1
Assay: raw area under fraction-flipped curve 0-4 h after induction (AUC4h, not background-subtracted), DNA-recorder readout of cleavage of the substrate (dimensionless); higher = more cleavage of the substrate by the protease variant
Details: temperature: 34 °C; time window: 0-4 h after rhamnose induction
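Also: Bxb1 expression induced with 0.2% (w/v) L-rhamnose at OD600 near 0.5, cultures sampled hourly, flipped fraction per protease–substrate barcode pair counted by paired-end Illumina sequencing.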

Variant | area with substrate ENAYFQS | area with substrate ENCYFQS | area with substrate ENDYFQS | area with substrate ENEYFQS | area with substrate ENFYFQS | area with substrate ENGYFQS | area with substrate ENHYFQS | area with substrate ENIYFQS | area with substrate ENMYFQS | area with substrate ENNYFQS | area with substrate ENPYFQS | area with substrate ENQYFQS | area with substrate ENRYFQS | area with substrate ENSYFQS | area with substrate ENTYFQS | area with substrate ENVYFQS | area with substrate ENYYFQS | area with substrate ENKYFQS | area with substrate ENWYFQS
MGESLFKGPRDYNPISSSICHLTNESDGHTTSLYGIGFGPFIITNKHLFRRNNGTLVVQSLHGVFKVKDTTTLQQHLVDGRDMIIIRMPKDFPPFPQKLKFREPQREERICLVTTNFQTKSMSSMVSDTSCTFPSGDGIFWKHWIQTKDGQCGSPLVSTRDGFIVGIHSASNFTNTNNYFTSVPKNFMELLTNQEAQQWVSGWRLNADSVLWGGHKVFRVKPEEPFQPVKEATQL [M219R] | 0.0592 | 0.0635 | 0.0665 | 0.0693 | 0.0564 | 0.0707 | 0.0477 | 0.0593 | 0.0638 | 0.049 | 0.0593 | 0.0504 | 0.0655 | 0.0674 | 0.0619 | 0.0589 | 0.0616 | – | –
MGESLFKGPRDYNPISSSICHLTNESDGHTTSLYGIGFGPFIITNKHLFRRNNGTLVVQSLHGVFKVKDTTTLQQHLVDGRDMIIIRMPKDFPPFPQKLKFREPQREERICLVTTNFQTKSMSSMVSDTSCTFPSGDGIFWKHWIQTKDGQCGSPLVSTRDGFIVGIHSASNFTNTNNYFTSVPKNFMELLTNQEAQQWVSGWRLNADSVLWGGHKVFMVNPEEPFQPVKEATQL [K221N] | 0.0546 | 0.0604 | 0.0589 | – | 0.0573 | 0.0728 | 0.058 | 0.0928 | 0.0783 | 0.0607 | 0.065 | 0.0566 | 0.0655 | 0.056 | 0.0559 | 0.0709 | 0.055 | 0.0644 | 0.0445
MGESLFKGPRDYNPISSSICHLTNESDGHTTSLYGIGFGPFIITNKHLFRRNNGTLVVQSLHGVFKVKDTTTLQQHLVDGRDMIIIRMPKDFPPFPQKLKFREPQREERICLVTTNFQTKSMSSMVSDTSCTFPSGDGIFWKHWIQTKDGQCGSPLVSTRDGFIVGIHSASNFTNTNNYFTSVPKNFMELLTNQEAQQWVSGWRLNADSVLWGGHKVFMVTPEEPFQPVKEATQL [K221T] | 0.0662 | 0.0787 | 0.0589 | 0.0674 | 0.0581 | 0.0553 | 0.0618 | 0.0721 | 0.0515 | 0.0544 | – | 0.0755 | 0.068 | 0.0846 | – | 0.0519 | – | 0.0627 | –
MGESLFKGPRDYNPISSSICHLTNESDGHTTSLYGIGFGPFIITNKHLFRRNNGTLVVQSLHGVFKVKDTTTLQQHLVDGRDMIIIRMPKDFPPFPQKLKFREPQREERICLVTTNFQTKSMSSMVSDTSCTFPSGDGIFWKHWIQTKDGQCGSPLVSTRDGFIVGIHSASNFTNTNNYFTSVPKNFMELLTNQEAQQWVSGWRLNADSVLWGGHKVFMVYPEEPFQPVKEATQL [K221Y] | 0.0627 | 0.0613 | 0.0638 | 0.0548 | – | 0.063 | 0.0647 | 0.0853 | – | 0.0553 | 0.0569 | 0.0432 | 0.0756 | 0.0464 | – | 0.0668 | – | 0.0554 | –
MGESLFKGPRDYNPISSSICHLTNESDGHTTSLYGIGFGPFIITNKHLFRRNNGTLVVQSLHGVFKVKDTTTLQQHLVDGRDMIIIRMPKDFPPFPQKLKFREPQREERICLVTTNFQTKSMSSMVSDTSCTFPSGDGIFWKHWIQTKDGQCGSPLVSTRDGFIVGIHSASNFTNTNNYFTSVPKNFMELLTNQEAQQWVSGWRLNADSVLWGGHKVFMVKVEEPFQPVKEATQL [P222V] | 0.0542 | 0.0628 | 0.0636 | 0.0694 | 0.0569 | 0.0536 | 0.061 | 0.0851 | 0.0662 | 0.0543 | 0.0694 | 0.0549 | 0.0551 | 0.0541 | 0.0831 | 0.0739 | 0.053 | 0.0575 | 0.0404
MGESLFKGPRDYNPISSSICHLTNESDGHTTSLYGIGFGPFIITNKHLFRRNNGTLVVQSLHGVFKVKDTTTLQQHLVDGRDMIIIRMPKDFPPFPQKLKFREPQREERICLVTTNFQTKSMSSMVSDTSCTFPSGDGIFWKHWIQTKDGQCGSPLVSTRDGFIVGIHSASNFTNTNNYFTSVPKNFMELLTNQEAQQWVSGWRLNADSVLWGGHKVFMVKPEMPFQPVKEATQL [E224M] | 0.0552 | 0.0641 | 0.0623 | 0.0354 | – | – | – | 0.0963 | 0.105 | 0.0644 | 0.0591 | 0.0627 | 0.0601 | 0.0507 | 0.0597 | 0.0707 | 0.0651 | 0.0567 | –
MGESLFKGPRDYNPISSSICHLTNESDGHTTSLYGIGFGPFIITNKHLFRRNNGTLVVQSLHGVFKVKDTTTLQQHLVDGRDMIIIRMPKDFPPFPQKLKFREPQREERICLVTTNFQTKSMSSMVSDTSCTFPSGDGIFWKHWIQTKDGQCGSPLVSTRDGFIVGIHSASNFTNTNNYFTSVPKNFMELLTNQEAQQWVSGWRLNADSVLWGGHKVFMVKPETPFQPVKEATQL [E224T] | 0.0646 | 0.0732 | 0.0627 | 0.0765 | 0.0609 | – | 0.0641 | – | 0.0823 | – | – | 0.0692 | 0.068 | 0.061 | 0.0642 | – | 0.0513 | – | 0.0576
MGESLFKGPRDYNPISSSICHLTNESDGHTTSLYGIGFGPFIITNKHLFRRNNGTLVVQSLHGVFKVKDTTTLQQHLVDGRDMIIIRMPKDFPPFPQKLKFREPQREERICLVTTNFQTKSMSSMVSDTSCTFPSGDGIFWKHWIQTKDGQCGSPLVSTRDGFIVGIHSASNFTNTNNYFTSVPKNFMELLTNQEAQQWVSGWRLNADSVLWGGHKVFMVKPEERFQPVKEATQL [P225R] | 0.0581 | 0.0706 | 0.0663 | 0.0675 | – | 0.0581 | 0.0645 | 0.092 | 0.0741 | – | 0.0289 | 0.0544 | 0.0604 | 0.063 | 0.0658 | 0.068 | 0.0652 | 0.0537 | 0.0526
